The list shows a part of the results.
T1: UNK ZnF1-6 (called full-length) (human, UniProt Q9C0B0 30-357)
T1 sequence: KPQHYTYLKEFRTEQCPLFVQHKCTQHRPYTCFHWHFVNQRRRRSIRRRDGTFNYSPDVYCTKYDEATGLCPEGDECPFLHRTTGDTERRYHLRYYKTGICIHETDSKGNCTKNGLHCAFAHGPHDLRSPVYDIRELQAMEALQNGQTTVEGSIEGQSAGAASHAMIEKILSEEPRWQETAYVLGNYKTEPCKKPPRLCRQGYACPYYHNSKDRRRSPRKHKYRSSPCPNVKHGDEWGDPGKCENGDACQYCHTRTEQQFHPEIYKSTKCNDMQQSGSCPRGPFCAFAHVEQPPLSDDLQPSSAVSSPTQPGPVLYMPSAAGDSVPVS

B1: ENSG00000070961:be:win_4851|3pUTR|ENSG00000070961|bound_else_gene|NA|bound_elsewhere_windowed (ssRNA)
RNA: GGGAGUUCUACAGUCCGACGAUCCAAUGUUUUUUUAAAAGACAUUUCAGCUUCUUUACUCAGUUCUGCAUAUACAGUGCAUCAGUCUGUUCUCUUUGACCACAAUUGGAAUACAUUUCAAGAUGGUAACAGCCCCAUGAAGUACAACAGAGGAUUGAGCAUCA
B2: chr20:53567570:53567671:-|3pUTR|ENSG00000171940|unk|FALSE|unique (ssRNA)
RNA: GGGAGUUCUACAGUCCGACGAUCUCACAAGCUGAGCCAUAUGUACAUAAUCUAGAUUUUGUUUUCAUAGUUUUGCACUUUUAUAGCCUAUUUUUGAAGAUUAACACAUUUGCAAGAUGAUUGACUCAAUCUUUGCCUAAUCCACAACAGAGGAUUGAGCAUCA
B3: chr5:83942588:83942842:-|3pUTR|ENSG00000164176|msi1|FALSE|unique (ssRNA)
RNA: GGGAGUUCUACAGUCCGACGAUCUUUUCUAAUUGAAUUUCCUAUUAGUUGACUAAAAGAAGUGUCAUGUUUACUCAUAUAUGUAGAACAUGACUGCCUAUCAGUAGAUUGAUCUGUAUUUAAUAUUCGUUAAUUAAAUCUGCACAACAGAGGAUUGAGCAUCA
B4: chr2:224511460:224511569:-|CDS|ENSG00000036257|unk|FALSE|bound_elsewhere (ssRNA)
RNA: GGGAGUUCUACAGUCCGACGAUCGAAAGCCAGAAAUUUUUAGCAGAAAAUAGUGCUUCAGUAUAUAUAAAGAAAGUAGAAGCUAGAAUUAAUGAAGAAAUAGAACGAGUGAUGCACUGCCUUGACAAAUCAACGGAAGAACCACAACAGAGGAUUGAGCAUCA
B5: chr10:113908677:113908778:+|3pUTR|ENSG00000196865|unk|total|mutant (ssRNA)
RNA: GGGAGUUCUACAGUCCGACGAUCAGCUAUGCUCCUUACUUACUUCUUUUAUUAUAAACAAAUUCCUUUGCUUUGGCUGAUACCCGCUGAGUCAUUGAUCAUCAUUGGUACCAUGAUAUUGUAAUCUAUGCUGCUAUUUGGCACCAACAGAGGAUUGAGCAUCA
B6: chr10:95606323:95606429:-|3pUTR|ENSG00000059573|unk|total|mutant (ssRNA)
RNA: GGGAGUUCUACAGUCCGACGAUCCCAUGGCUGCUUUGUGUCACCUCAGUGACUUACAGUCCCCCUUGGCAUUCCGUUGGUACCCGAGCCAGUCAUCCUUAACAAAUCUUUUCACAUUUUAUUUCUUUCACAUGCCGUCAUCUUCAACAGAGGAUUGAGCAUCA
B7: chr5:75599425:75599511:+|3pUTR|ENSG00000122008|msi1_unk|total|mutant (ssRNA)
RNA: GGGAGUUCUACAGUCCGACGAUCGAACCGCUUAAUUAAGAACUCACAGACUUUGACAAAGUGGUAACCCGACUUUUAAUUACCCGAUUCUUCAAAUCCGGCUUAAUGCCUGCCCGCAUGCCAAUCCAAUCCCAUGACUGAUGUCAACAGAGGAUUGAGCAUCA
B8: chr7:101137743:101137929:+|3pUTR|ENSG00000106366|msi1|FALSE|unique (ssRNA)
RNA: GGGAGUUCUACAGUCCGACGAUCCCACUGAGGCCCUUUGCAGGAUGGAACUACGGGGCUUACAGGAGCUUUUGUGUGCCUGGUAGAAACUAUUUCUGUUCCAGUCACAUUGCCAUCACUCUUGUACUGCCUGCCACCGCGGAGCAACAGAGGAUUGAGCAUCA
B9: chr2:80288350:80289195:-|three_prime_utr|ENSG00000162951|control|control|control (ssRNA)
RNA: GGGAGUUCUACAGUCCGACGAUCAGAUUCAGUCCCCAGUCCUCCUUCUCUGAGCAGACCUCUCAUCCGCAGCAUAUAUCUGCUAGAUCUUCUAAGAGCUGAAAUGGAGACUUCUGGAAGAAGGUGGGAAAGAAAUCCAUCUCGCAACAGAGGAUUGAGCAUCA
B10: chr6:117694021:117694122:+|CDS|ENSG00000153989|msi1|total|mutant (ssRNA)
RNA: GGGAGUUCUACAGUCCGACGAUCGCUGUCUCCGGAAGAUGGAAAAGCAGAUAUUGUAAGAGCUGCUCAGGACUUUUGCCAGUCCGCCGCCCAGAAGCAAAAGAGACCCACAGAUUUGGAUGCCGAUACGUCCGCCAGUUUACUCAACAGAGGAUUGAGCAUCA
B11: chr5:33997006:33997390:-|three_prime_utr|ENSG00000289791|control|control|control (ssRNA)
RNA: GGGAGUUCUACAGUCCGACGAUCAAUUUAUGUUACACUCAGGCUGCUGGGGGAUGCUUCAGUUUCCUUCACAGAAAACUAAAUAGUGGGAAUCCGGACCAAUAAAGAAAGGAUCAAGAAGCUAAUGAAUUAGUCGCUAAUGCUCAACAGAGGAUUGAGCAUCA
B12: chr19:9526975:9527076:-|3pUTR|ENSG00000130818|unk|total|mutant (ssRNA)
RNA: GGGAGUUCUACAGUCCGACGAUCCCUCUCAGACCUUCCAUCAUUACUAUAUUUCACUUUUAUGCCUAUAAACACACACAAAUCCGCAUAUGUAAUCUAAUACAUUGCCGCUAUUUUUCAGAAGUUAUCAGAUCAAUUAAGUAUCAACAGAGGAUUGAGCAUCA
B13: chr2:235053981:235054083:+|3pUTR|ENSG00000130147|unk|FALSE|unique (ssRNA)
RNA: GGGAGUUCUACAGUCCGACGAUCCUCCUCCAUCGAGGGAGAGGCCUGAAGGGACUGCCUACUGCAGCUCGUUGCCAAUCACAUAGCUUUCUAUUUGUUAAGUAUAAAUUUAAAUUUAAAAUCACUUUUUUAACGAAUGGGGGGCAACAGAGGAUUGAGCAUCA
B14: chr1:42278343:42278454:-|CDS|ENSG00000198815|unk|total|mutant (ssRNA)
RNA: GGGAGUUCUACAGUCCGACGAUCAAAAAGAAAAUGACUUUAAGUGAAAUUUAUCAGUGGAUUUGUGAUAACUUCCCAUAUUACCGAGAGGCUGGCAGUGGUUGGAAGGUAAGGAUUUUAUUUAAAUUAUUACUUUUAUGAAGUCAACAGAGGAUUGAGCAUCA
B15: ENSG00000204186:stop:overlap|stop_codon|ENSG00000204186|stop_codon|NA|stop_codon (ssRNA)
RNA: GGGAGUUCUACAGUCCGACGAUCAACAACGUGAGAGAAUGAUGACUCGGCUAGCAAACAAACUGAGAGGUAAUGAGGUAAAAUAGAAGUUGGUUUUGUGUUCAGGCUAGUUGAGGAUUCAGUACUUCAGUUGAAAUAUAUUUGCAACAGAGGAUUGAGCAUCA
B16: ENSG00000157823:stop:overlap|stop_codon|ENSG00000157823|stop_codon|NA|stop_codon (ssRNA)
RNA: GGGAGUUCUACAGUCCGACGAUCUCCGCUUCUACCAGCGUUUCAAGAAAUUCAACAGCAGAUUGUUCGAGAGACUUUCCAUCUAGUCCUCAAGCGGGAUGACAACAUCUGUAACUUCUUGGAGGGUGGAAGUUUGAUUGGUGGCAACAGAGGAUUGAGCAUCA
B17: chr1:6224442:6224573:-|3pUTR|ENSG00000116237|msi1_unk|FALSE|overlapping (ssRNA)
RNA: GGGAGUUCUACAGUCCGACGAUCCUAUACAAUUUUAAAAAUACUUCCUCAUAGGAUGCUUUGGCCCUUCAUCUAUUUAAUCAUAGCUACAUACCUAUUUUUUAUAAGUAGCAGUACACAUUCAAAGGGGUAUUCCUAGCUCAACAACAGAGGAUUGAGCAUCA
B18: chr9:116187394:116187495:+|CDS|ENSG00000182752|msi1|FALSE|unique (ssRNA)
RNA: GGGAGUUCUACAGUCCGACGAUCUGGGGAACAAGUGGGUGGCAUAUUCAGCCCACUGACCCAGAAGUGCAAAGUGCUCAUGUUAGGGGGCAGUGCCCUGAAUCACAACUACCGGGGCUACAUCGAGCACUUCAGUCUGUGGAACAACAGAGGAUUGAGCAUCA
B19: chr13:19772241:19772543:-|CDS|ENSG00000121390|control|control|control (ssRNA)
RNA: GGGAGUUCUACAGUCCGACGAUCAGUAGAGAAAGCUGUUGUGGUUGUGGAUGAUCGCGGUAGAGCUACAGGAAAAGGUUUUGUAGAGUUUGCAGCAAAACCUCCUGCACGAAAGGCUCUGGAAAGAUGUGGUGAUGGGGCAUUCAACAGAGGAUUGAGCAUCA
B20: chr11:2944997:2945113:-|3pUTR|ENSG00000205531|unk|FALSE|unique (ssRNA)
RNA: GGGAGUUCUACAGUCCGACGAUCCUGUGUAGAGUAGGGCCCUGUUCUCCUUAGGAUGUUGCUUCUUGAUUUUUUUUUUUUUUUAGGGGUGGGUCAGGGUUGUGACACACCAGCCCAGGUGAGAGCUGCUGCGGGUCACCUCAUCAACAGAGGAUUGAGCAUCA
B21: ENSG00000070961:be:win_6451|3pUTR|ENSG00000070961|bound_else_gene|NA|bound_elsewhere_windowed (ssRNA)
RNA: GGGAGUUCUACAGUCCGACGAUCUAAGCCAACUGAGAUACCGUGAUGGUGUUGAUUUCUUUCAAUGAUGCUUACCAUCUAUUUUAGCCACUGAGCCUUUUAUUAUUUGUCUAUUUGUAAAGUUUAUUUGUCUUAACUCAUUUACAACAGAGGAUUGAGCAUCA
B22: chrX:74591538:74591767:-|CDS|ENSG00000131263|unk|FALSE|bound_elsewhere (ssRNA)
RNA: GGGAGUUCUACAGUCCGACGAUCUUGCCCUUCCUUAGCCUGGCUCAGUUUUUCCUCUUAAAUGAGGAUGAUGAUGACCAACCUAGAGGACUCACCAAAGAACAGAUUGACAACUUGGCAAUGAGAAGUUUUGGUGAAAAUGAUCAACAGAGGAUUGAGCAUCA

Each binder was assayed against T1, UNK ZnF1-6 (called full-length) (assay: nsRBNS (natural sequence RNA bind-n-seq); RBNS binding buffer (assumed for nsRBNS): 25 mM Tris pH 7.5, 150 mM KCl, 3 mM MgCl2, 0.01% Triton X-100, 500 ug/ml BSA, 20 U/ml SUPERase-In, 4 C; UNK is unkempt and MSI1 is Musashi-1; names of the RNAs are library labels; protein concentration not given here; high values mean tight binding).
For B1, the binding signal was 0.423 enrichment R. B2 gave a binding signal of 3.86 enrichment R. Work on B3 yielded a binding signal of 1.53 enrichment R. Work on B4 yielded a binding signal of 16.7 enrichment R. B5 was tested, and the binding signal was 5.02 enrichment R. B6 showed a binding signal of 6.24 enrichment R. Binder B7 has a binding signal of 0.537 enrichment R. Binder B8 has a binding signal of 0.502 enrichment R. Work on B9 yielded a binding signal of 0.527 enrichment R. B10 showed a binding signal of 0.562 enrichment R. For B11, the binding signal was 0.584 enrichment R. Binder B12 has a binding signal of 2.25 enrichment R. B13 showed a binding signal of 2.97 enrichment R. For B14, the binding signal was 1.7 enrichment R. B15 gave a binding signal of 4.96 enrichment R. With B16 the binding signal was 0.633 enrichment R. Work on B17 yielded a binding signal of 2.06 enrichment R. Binder B18 has a binding signal of 0.696 enrichment R. With B19 the binding signal was 0.874 enrichment R. Binder B20 has a binding signal of 22 enrichment R. For B21, the binding signal was 3.38 enrichment R. For B22, the binding signal was 0.364 enrichment R.

— article PMC12136788
